According to PubChem BioAssay AID1508642 (National Center for Advancing Translational Sciences (NCATS), 2021):
The campaign covered roughly 43,000 compounds. About 200 (0.47%) were called active. Inconclusive results (about 12%) are left out. Calls come from the whole dose curve; as a rule, active = well fitted cell-killing curve with a large enough effect; inconclusive = small, poorly fitted or top-dose-only effect, or effect the other way; inactive = flat fitted curve, though single readings scatter. Some of the results follow.

Assay: Cell viability qHTS assay in S16 Pmp22-F2sN cells; note: nearly all actives have a fitted effect of over 65% in size
Conditions: S16 Pmp22-F2sN Schwann cells (luciferase reporters placed in the Pmp22 gene) viability, CellTiter-Glo, 24 h; series mostly up to 57.5 µM; activity change, negative = cytotoxicity: at the top concentration
How it was run: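 Rat S16 Schwann reporter line, 24 h treatment with library compounds delivered at 23 nL per well. Cell viability by CellTiter-Glo luminescence.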
% is set by controls: 0 for no effect and ±100 for the full control effect.

| SMILES | activity change, negative = cytotoxicity |
| --- | --- |
| COc1cccc(C2C(C(=O)Nc3ccc(Cl)cc3)=C(C)Nc3nc4ccccc4n32)c1OC (configuration not stated) | inactive: -2.7% |
| CC(=O)N1CCCc2cc(S(=O)(=O)N3CCN(c4ccccc4F)CC3)ccc21 | inactive: -7.75% |
| CCCCNC(=O)c1c(-c2ccccc2)c(-c2ccccc2)nn(C)c1=O | inactive: 1.3% |
| Cc1oc2ncn(CC(C)C)c(=O)c2c1C(=O)N(CCN(C)C)Cc1ccccc1 | inactive: 5.63% |
| Cc1ccc2c(c1)N(C(=O)N1CCC(C(=O)NCc3ccccc3C)CC1)CC(C)O2 (configuration not stated) | inactive: -5.51% |
| CCCCNC(=O)c1ccc2c(c1)N(CC)C(=O)c1ccccc1S2 | inactive: -1.71% |
| CCNC(=O)c1c(NC(=O)Cc2coc3ccc(CC)cc23)sc2c1CCCC2 | inactive: 8.26% |
| CCCCNC(=O)CN1C(=O)c2cccnc2Sc2ccccc21 | inactive: 9.28% |
| CC1=C(C(=O)Nc2cccnc2)C(c2cccc(F)c2)n2nc(SCc3ccccc3F)nc2N1 (configuration not stated) | inactive: 14.7% |
| COc1ccc(C)cc1NC(=O)c1cc(S(=O)(=O)N2CCOCC2)cn1C | inactive: 10.3% |
| O=C(CSc1nc(=O)[nH]c2c1CCCC2)NCc1ccccc1Cl | inactive: 2.29% |
| CC(=O)N1c2ccc(S(=O)(=O)NCc3ccccc3Cl)cc2CC1C (configuration not stated) | inactive: -9.05% |
| CCOC(=O)c1c(C)n(-c2ccccc2)c2ccc(OC(=O)COc3ccccc3)cc12 | inactive: -1.09% |
| COc1ccc(N2CCN(C(=O)C3CCCN(C(=O)c4cc5sccc5n4C)C3)CC2)cc1 (configuration not stated) | inactive: 9.05% |
| O=C(COc1ccc2ccccc2c1)NC1CC(=O)N(c2ccc(F)cc2)C1 (configuration not stated) | inactive: 1.58% |
| Cc1ccccc1CN1c2ccccc2-c2nc(SCC(=O)c3ccccc3)ncc2S1(=O)=O | inactive: -2.24% |
| CCOc1ccccc1NC1(c2ccccc2)C(=O)c2ccccc2C1=O | inactive: -1.12% |
| CC1(C)N=C(SCc2ccc(F)cc2)c2ccccc2N1 | inactive: -16.6% |
| CCNC(=O)c1ccc2c(c1)nc1n2CCCCC1 | inactive: 4.03% |
| Cc1c(CNC2CCCCC2)c(C(=O)O)c(C)n1Cc1ccccc1F | inactive: -1.92% |
| Cc1ccccc1OCc1nc2c3cnn(-c4cccc(F)c4)c3ncn2n1 | inactive: 19.4% |

| SMILES | activity change, negative = cytotoxicity |
| --- | --- |
| COc1cccc(N2CCN(C(=O)C3CCCN(S(=O)(=O)c4cccc5nsnc45)C3)CC2)c1 (configuration not stated) | inactive: -10.4% |
| Cc1ccc(CNC(=O)CCc2c(C)nn(-c3ccc(N4CCOCC4)nn3)c2C)cc1 | inactive: 16.3% |
| CCOc1ccc(C(=O)c2cn(CC(=O)Nc3ccc4c(c3)OCO4)c3ccc(OC)cc3c2=O)cc1 | inactive: -3.28% |
| O=C(CCn1c(=O)c2cccn2c2cccnc21)NCc1ccccc1Cl | inactive: 6.53% |
| CCOc1ccc(C(=O)Nc2cc(-c3nc4cc(OC)ccc4o3)ccc2C)cc1[N+](=O)[O-] | inactive: 2.87% |
| Cc1ccc(Cl)cc1NC(=O)CSc1nc2ccccc2c2nc(-c3ccccc3)nn12 | inactive: 0.0925% |
| CCOC(=O)C1CCN(C(=O)c2nn(-c3ccc(OC)c(Cl)c3)c(=O)c3c2c2ccccc2n3C)CC1 | inactive: -17.1% |
| Cc1ccc(S(=O)(=O)c2cn(CC(=O)Nc3cccc(Cl)c3)c3ccccc3c2=O)cc1 | inactive: 2.76% |
| CCn1c(=O)n(-c2ccc3c(c2)OCO3)c2nc(-c3ccc(C(C)C)cc3)nc(C(N)=O)c21 | inactive: 14.7% |
| CCOc1ccc2c(c1)c(=O)c(C(=O)c1ccc(CC)cc1)cn2CC(=O)Nc1ccccc1OC | inactive: 16% |
| COc1ccc(OC)c(NC(=O)Cn2c(=O)c3cccn3c3ccccc32)c1 | inactive: -2.35% |
| CCN(C(=O)CSc1nnc(-c2cc(OC)c(OC)c(OC)c2)o1)c1ccccc1 | inactive: 4.1% |
| O=C(Cn1c(-c2cccs2)cc2ccccc21)N1CCN(c2ccccc2F)CC1 | inactive: 1.76% |
| COc1ccc(NC(=O)CSC2=Nc3ccccc3C3=NC(CC(=O)NCc4ccco4)C(=O)N23)cc1 (configuration not stated) | inactive: -0.39% |
| Cc1ccc(C(=O)N(Cc2ccco2)Cc2ccco2)cc1 | inactive: 9.31% |
| CCOc1cc(CNC(=O)c2ccccc2NC(=O)c2nsc3ccccc23)ccc1OC | inactive: -5.21% |
| CCOc1ccc(NC(=O)Cn2cc(C(=O)c3cccs3)c3ccccc32)cc1 | inactive: 14.1% |
| CCOc1cccc(CC(=O)NCc2ccc3c(c2)CCN3C(=O)c2ccc(F)cc2)c1OCC | inactive: -2.08% |
| COc1ccc(CN(C)c2ccc(-c3nc(-c4ccccc4)no3)cc2[N+](=O)[O-])cc1 | inactive: 11.9% |
| COc1cccc(CCNC(=O)c2cnc3sc(N4CCCCCC4)nn3c2=O)c1 | inactive: 1.99% |
| O=C(Nc1ccc2oc(-c3cccnc3)nc2c1)c1ccc(-c2cccc(Cl)c2)o1 | inactive: 11.8% |

| SMILES | activity change, negative = cytotoxicity |
| --- | --- |
| Cc1ccc(-n2nc3c(=O)n(CC(=O)NC(C)C)nc(C)c3c2C)cc1 | inactive: 1.19% |
| Cc1cccc(Nc2ncc(NC(=O)c3cccc(F)c3)c(Nc3cccc(C)c3)n2)c1 | inactive: 3.48% |
| CCC(CC)C(=O)Nc1ccc2nc(SCc3ccccc3)sc2c1 | inactive: 18% |
| COc1ccc2c(CC(=O)Nc3ccc(C)cc3)coc2c1 | inactive: 3.26% |
| COc1cccc(N(Cc2nnc3n2CCCCC3)C(=O)Nc2ccccc2)c1 | inactive: -0.0948% |
| Cc1nc2nc(NC(=O)c3ccc(C(C)(C)C)cc3)[nH]n2c(=O)c1Cl | inactive: 5.25% |
| Cc1ccc(-c2nnc(SCC(=O)c3ccc(Cl)cc3)n2-c2ccccc2)cc1 | inactive: 1.34% |
| CCOc1ccccc1NC(=O)C1CCN(S(=O)(=O)c2cc(Br)cc3c2N(C(C)=O)CC3)CC1 | inactive: 2.84% |
| COc1cccc(CN2CCCN(CC(=O)Nc3ccc4c(c3)OCCO4)S2(=O)=O)c1 | inactive: 15.2% |
| O=C(Nc1cccc(O)c1)c1cc2nc(-c3ccc(Br)cc3)cc(C(F)(F)F)n2n1 | inactive: 5.21% |
| COc1ccc(N2CCN(C(=O)CSc3c4c(nc5ccc(Cl)cc35)CCCC4)CC2)cc1 | inactive: -24.6% |
| CCOc1ccc(CNC(=O)c2ccc3c(c2)N(CC)CCS3)cc1 | inactive: 6.87% |
| CCCCOc1ccc(C(=O)NCCc2sc(-c3ccc(OC)c(OC)c3)nc2C)cc1 | inactive: -2.49% |
| Cc1ccc(NC(=O)C2CCN(S(=O)(=O)c3ccc4[nH]c(=O)ccc4c3)CC2)cc1C | inactive: 15.7% |
| Cc1ccccc1CNc1nc(N(C)C)nc2c1cnn2C | inactive: -3% |
| Cn1c(=NC(=O)c2ccc(S(=O)(=O)N3CCCC3)cc2)sc2cc(F)ccc21 | inactive: -17.9% |
| CCc1ccccc1NCc1nnc2n1CCCCC2 | inactive: -1.57% |
| O=C1COc2cc(S(=O)(=O)CCC(=O)N3CCN(c4ccccc4F)CC3)c(Cl)cc2N1 | inactive: 9.16% |
| CCc1cccc(CC)c1NC(=O)Cn1c(=O)c(-c2cc(C)ccc2NC(C)=O)nc2ccccc21 | inactive: 1.35% |
| CCCc1cc(N2CCN(c3ccccc3)CC2)n2cnnc2n1 | inactive: -28.6% |
